Laboratory results from publication PMC11250848.
Residue numbers refer to the chain shown, from its start. Results are given in words; binding and its absence hold for the method and conditions named. In cells and extracts the contact can be indirect. Some binding calls cover weakened binding; strength is not graded here. For part of these data: Tags and fused reporters may be left off the sequences shown.

The chains behind the UniProt entries cited, without tags or fusion partners.
UniProt O95166: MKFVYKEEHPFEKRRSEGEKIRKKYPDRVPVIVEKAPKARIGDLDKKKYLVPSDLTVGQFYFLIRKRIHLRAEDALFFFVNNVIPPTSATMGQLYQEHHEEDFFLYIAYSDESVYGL
UniProt Q9BSR8: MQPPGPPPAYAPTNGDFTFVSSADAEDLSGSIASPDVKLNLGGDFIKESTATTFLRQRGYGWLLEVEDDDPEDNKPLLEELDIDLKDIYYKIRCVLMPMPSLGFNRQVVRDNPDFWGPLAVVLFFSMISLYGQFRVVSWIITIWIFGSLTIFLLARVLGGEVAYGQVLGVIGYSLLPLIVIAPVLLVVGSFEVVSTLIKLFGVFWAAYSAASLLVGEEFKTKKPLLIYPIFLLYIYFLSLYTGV

Tests used:
FLAG-tagged GABARAP = FLAG-tagged GABARAP (UniProt O95166); experiment: co-IP; FLAG–ATG8s transfected into HEK293T cells; lysis in 50 mM Tris-HCl pH 7.4, 150 mM NaCl, 1 mM EDTA, 1% Triton X-100; anti-FLAG M2 agarose for 2 h or overnight at 4 °C; endogenous YIPF3 and YIPF4 detected by immunoblot
[1] = molecular target: T1, FLAG–YIPF3LIR2A_2 (Y112A, I115A) (human) (UniProt Q9GZM5); experiment: co-IP; FLAG–YIPF3 (WT or mutants) or FLAG–YIPF4 transfected into HEK293T cells; lysis in 50 mM Tris-HCl pH 7.4, 150 mM NaCl, 1 mM EDTA, 1% Triton X-100; anti-FLAG M2 agarose for 2 h or overnight at 4 °C; endogenous partners detected by immunoblot
T1 sequence: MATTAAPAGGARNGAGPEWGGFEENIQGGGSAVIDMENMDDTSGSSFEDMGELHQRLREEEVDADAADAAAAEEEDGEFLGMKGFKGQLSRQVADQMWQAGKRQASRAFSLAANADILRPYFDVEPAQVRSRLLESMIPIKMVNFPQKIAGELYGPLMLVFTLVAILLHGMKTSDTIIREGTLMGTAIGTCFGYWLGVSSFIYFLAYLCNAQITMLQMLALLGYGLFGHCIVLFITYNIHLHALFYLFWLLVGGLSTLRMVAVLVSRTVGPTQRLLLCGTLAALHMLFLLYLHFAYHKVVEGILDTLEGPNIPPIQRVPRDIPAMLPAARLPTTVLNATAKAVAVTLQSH

FLAG–YIPF3 (human) = FLAG–YIPF3 (human) (UniProt Q9GZM5); experiment: as above
[2] = molecular target: T2, FLAG–YIPF3LIR2A_1 (F47A, M50A) (human) (UniProt Q9GZM5); experiment: as above
T2 sequence: T1 sequence with F47A, M50A, A112Y, A115I

[3] = molecular target: T3, FLAG–YIPF3LIR2 A_3 (Y121Z, V124 A) (human) (UniProt Q9GZM5); experiment: as above
T3 sequence: T1 sequence with A112Y, A115I, Y121A, V124A

Row | binding (FLAG-tagged GABARAP) | binding [1] | binding (FLAG–YIPF3 (human)) | binding [2] | binding [3] | Substance
1 | binds |  |  |  |  | endogenous YIPF3 (from UniProt Q9GZM5 1-350)
2 | no binding | binds | binds | binds | binds | endogenous YIPF4 (from UniProt Q9BSR8 1-244)
